Data: the supplement of paper PMC11417369
Some of the results follow.

test system: PfSIP2 AP2 domain 1 (GST-tagged); assay: gcPBM binding intensity (ln(normalized median fluorescence intensity)); higher = stronger DNA binding
Procedure, shortened: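 Alexa488 anti-GST antibody, scanned at 488 nm, detected GST-tagged P. falciparum DNA-binding domains that had been expressed in E. coli and incubated for 1 h on an Agilent 4 × 180k array. The array carried primer-extended double-stranded 36-bp intergenic genomic probes and negative controls. Binding intensity is the highest Masliner-normalised natural-log median intensity across replicate spots of either orientation of each probe.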

Sequence	gcPBM binding intensity (ln)
ATAAAATACATATAAACACACATATAAACCGACATA [CACACA_site2477]	7.09
AGTTTTTACTCTAATGGTACAGTGCAACTAATAAAT [XGTACX_site6950]	8.48
TTTATGTAAAAATATAGTACATATTAAAAGATAAGA [XGTACX_site8134]	6.79
ATATATTCCATAAAGGTGCTGTTAACGTGTCAACGT [GTGCAC_site9402]	7.84
TAAGTATACACATACACACACACACTAAAAAAAAAA [CACACA_site6337]	7.11
TATTTTCCCTCCATATGTACTTAATTATAAGCACAT [XGTACX_site4000]	7.13
TATATATCGCATAAAACACACAAAAAAAAAATTAAA [CACACA_site7767]	7.07
AAAAAAAAAATATACACACACACATACACATAAATA [CACACA_site3808]	7.03
ATATATATCTTTTGTGTGCACATATATATAATATAT	9.23
TTATATTCTATTTATTGTACTTAAATATATATATAT [XGTACX_site6400]	8.96
AAACGAAAAAAATGGTGTACATTAAAATGAAAATTG [XGTACX_site7040]	6.96
TCTATCTTTTCCAAACGTACATTTTTTATATAAATT [XGTACX_site5352]	7.26
ATTTCATTTATAAGGATATCTACTTTTTATTTTAAT [GTGCAC_negctrl_site59]	6.79
GTGCCATTTAAAAAATGTACAAGAAAATGTTCATCA [XGTACX_site2865]	7.05
TGGTATTGAATTTTTTGTACACATAAAATATATATA [XGTACX_site7614]	7.29
TATTTTAATTTTTTTTTGTTTTTTCTAATACATGTA [CACACA_negctrl_site1399]	6.67
TTTTTTTTGGTATAATGTACATTTTCACTTATGTAT [XGTACX_site3259]	6.98
ATTTTATTTTCTCACACACACATATATATATATATA [CACACA_site5781]	9.68
ACATATGTTAAAAAGGCATGCATTCTTTTTATTTTA [TGCATGCA_site1043]	6.98

Sequence	gcPBM binding intensity (ln)
ACCAAAAAAAAAAAAAAAAAAATATACATATATATA [GTGCAC_negctrl_site582]	7.26
ACGTGATAAATAAATACATGCATAGAAAGATGCATA [TGCATGCA_site91]	7.1
TATATATATATATATTGTACTAGTGCATATATATAC [XGTACX_site7926]	8.89
TTTAAATATTTTAATACACACACGATATGTACAAAA [CACACA_site4455]	7.11
TACAATGAAAAAATAACATGCAATTATATTTCTCTT [TGCATGCA_site833]	7.05
ATAACATATTTCTTTTGTACTCAAAATAAAATTAAT [XGTACX_site2479]	7.04
AATTTTGTTGAGCACACACACATACATACATACATA [CACACA_site3154]	7.18
AAATATATTTTATTTTGTACTTATGTATAAAATATA [XGTACX_site914]	6.85
ATTCAAAAGATGTATACACACATGTGTATAATATAA [CACACA_site7197]	7
AATAATATATATATAATACACACTATTATAATCACA [CACACA_site1310]	7.1
AATAATAAAAAATATACACACATATATATATATATA [CACACA_site25]	9.28
AAAAAAAAAAAAAAATGTACATATGGTATGCATATA [XGTACX_site3225]	7.2
GCTTATAAAGGCAGAAGTACTGTATTCCTATATATA [XGTACX_site8865]	7.06
TTGGCATACGGACACACACACACACCCAGACATATA [CACACA_site4492]	7.16
TTATACAAATTCATGGGTACAAACAAACATATATCA [XGTACX_site6237]	7.03
TATACCTATAAATACACACACATATAAATAAATATA [CACACA_site6153]	7.2
AAAATATATACTCCATCACACACCAAAAAGAAAAAA [CACACA_site2542]	7.15
ATACATAAATACAAACGTACATACATACATACATAC [XGTACX_site7824]	8.32
CAGCTCTTAAGAATTACACACATATACACATATATA [CACACA_site7524]	6.98

Sequence	gcPBM binding intensity (ln)
GCAACACAAAAAATTACACACAAAAAAAATATATTA [CACACA_site916]	7.04
GAAGAAAAAAAATATACACACATACGATCATACATA [CACACA_site5227]	6.84
ATTCTACGCACGCGCACACACAACAAAAAAAAAAAA [CACACA_site3538]	8.11
GTGATGGTACAATATACACACTTAAAAAAAAAAAAT [CACACA_site5360]	7.17
CATGTGTGATAATGATGTACTATATTAAGCTAGTCC [XGTACX_site2690]	6.91
TATATACATATATATTGTACTTATTTTTATAATGTC [XGTACX_site3453]	7.34
TTAAGGCATCAACATAGTACAATTTTTCTATAATAA [XGTACX_site1114]	6.94
ATTTAATACAAATACACACACAAATAAATACAGATA [CACACA_site5956]	7.05
TTTATAATTCTTACAACACACAATGTACTTTTATAT [CACACA_site8340]	7.12
TTTATTTCCTTTTTGTGTACATATATATGTAATTCA [XGTACX_site1718]	6.94
ATAAAAGATATGTATATGTATATGTATATATATATA [TGCATGCA_negctrl_site214]	9.08
TATAAATAAATAGATACACACATATTTATAAATACA [CACACA_site6219]	6.85
TTACGCTGCTATATAGTGCACATAATATATGACCTG	9.96
GCTTAAGGTAAATATAAAATATAGTGTATACTTTAG [XGTACX_negctrl_site585]	6.8
ACTTAGGAAATAAAACGTACATTAAATATATACATA [XGTACX_site2990]	7
TGAATAATCAATAGTACACACATATAAATATAAATA [CACACA_site7345]	6.98
TTTTATTTATTATTATGTACACACTATATTAAAACA [XGTACX_site1265]	7.13
GTATGTATGTATGTATGTACTTATTAATCAGTAAAA [XGTACX_site3844]	8.21
TTTTTGTTAACAATGGGTACAAAAAAAAGGAAAATA [XGTACX_site7466]	7.13
